According to the RNAGym collection of RNA variant scans (doi:10.1073/pnas.2313332121):
This sample is rich in variants without activity.

B1: TPR 5TU (parent)
chain: GGAUCUUCUCGAUCUAACAAAAAAGACAAAUCUGCCACAAAGCUUGAGAGCAUCUUCGGAUGCAGAGGCGGCAGCCUUCGGUGGCGCGAUAGCGCCAACGUUCUCAACUAUGACACGCAAAACGCGUGCUCCGUUGAAUGGAGUUUAUCAUG

Variants of: B1
Test: polymerase ribozyme fitness, log enrichment relative to wild type (log ratio); higher = more active; in vitro selection for triplet polymerase activity
Method in brief: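 Fitness is a logarithmic measure of how a genotype enriched relative to the wild type, with replicate averages weighted by inverse variance. The logarithm uses base 2, and enrichment came from Illumina sequencing of input and output libraries. Those libraries were PCR-built, transcribed mutants of each subunit of a heterodimeric triplet polymerase ribozyme, passed through one triplicate in vitro selection round that included frozen incubation at −7 °C, gel excision of extended constructs and streptavidin-bead capture. Genotypes were kept only if they had ≥10 input reads and ≥1 read per output.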

U15G A29U C103A and A16C A26U G42U A47C U55A U90G A98G cannot be ordered by “polymerase ribozyme fitness (log ratio)” value: ≤ -4.2 for the first, ≤ -4.2 for the second.

First: U15G A17U
Second: U15G C35U G70A A91G G92U
The “polymerase ribozyme fitness (log ratio)” value of the first is higher: -0.367 for the first, ≤ -4.2 for the second.

Going from U15G C27A C69U G70U G88U C93A G143A to A16G A20G A120C, the “polymerase ribozyme fitness (log ratio)” value rises from ≤ -4.2 to -1.84.

A16G A17G C57U A64C A91U C95U C118G G124A G126A G133C and A16C C35G G68U U109G cannot be ordered by “polymerase ribozyme fitness (log ratio)” value: ≤ -4.2 for the first, ≤ -4.2 for the second.

Compared with U15G G71U, U15C A17G A37G C57U G128U is lower in “polymerase ribozyme fitness (log ratio)” value: -2.28 for the first, ≤ -4.2 for the second.

U15G C38U G67C C76A G80A and A16G A19C A22G C54A C85U A110U G136A cannot be ordered by “polymerase ribozyme fitness (log ratio)” value: ≤ -4.2 for the first, ≤ -4.2 for the second.

U15G C18G A20G A49C A52G C87A G92U and U15G A60C G88C cannot be ordered by “polymerase ribozyme fitness (log ratio)” value: ≤ -4.2 for the first, ≤ -4.2 for the second.

A16C C27A C36G C99A U101A G126C and A16C A17G C27A A47G A60U G86A C87G A115G cannot be ordered by “polymerase ribozyme fitness (log ratio)” value: ≤ -4.2 for the first, ≤ -4.2 for the second.

U15C G48A C87A U101G and A16G A20G G48C G62U A91U cannot be ordered by “polymerase ribozyme fitness (log ratio)” value: ≤ -4.2 for the first, ≤ -4.2 for the second.

Compared with U15G C76U U78G G80A G88U, U15C A41G U61G C99U is higher in “polymerase ribozyme fitness (log ratio)” value: ≤ -4.2 for the first, -2.24 for the second.

U15C A23C A30G U44A G70A C87A G141C and A16C C36A U78A G94A U127C U134C C149A cannot be ordered by “polymerase ribozyme fitness (log ratio)” value: ≤ -4.2 for the first, ≤ -4.2 for the second.

First: U15G A17C A21G A49U C75A U101G
Second: A16C C99G C125A
The “polymerase ribozyme fitness (log ratio)” value of the first is lower: ≤ -4.2 for the first, -2.16 for the second.

U15G A24U G25C C38G C54G C76G G81C C93A C132U and U15G C36G U111G G124A G141C A150U cannot be ordered by “polymerase ribozyme fitness (log ratio)” value: ≤ -4.2 for the first, ≤ -4.2 for the second.

First: U15G G84A
Second: U15C A19G C69G C76A C79G G84U C95A A110U
The “polymerase ribozyme fitness (log ratio)” value of the first is higher: -1.57 for the first, ≤ -4.2 for the second.

U15G C51U G86U A89U C114U and A16C C87U A91C cannot be ordered by “polymerase ribozyme fitness (log ratio)” value: ≤ -4.2 for the first, ≤ -4.2 for the second.

U15G C87U G94A A97C A98G G133U A142U and U15G A19G A49C A73U C114U cannot be ordered by “polymerase ribozyme fitness (log ratio)” value: ≤ -4.2 for the first, ≤ -4.2 for the second.

Compared with U15G U55A, U15G A41U A73G is lower in “polymerase ribozyme fitness (log ratio)” value: -0.257 for the first, -1.57 for the second.

U15G A26C G48A G68A C75A U90G C93G and A16G A30C A52C G84U C85G G100A U101A A122U G126U cannot be ordered by “polymerase ribozyme fitness (log ratio)” value: ≤ -4.2 for the first, ≤ -4.2 for the second.

Compared with U15G C96A, A16C A26G C35A A52G C87U is lower in “polymerase ribozyme fitness (log ratio)” value: -0.302 for the first, -3.98 for the second.

A16G A26U C35A C51G U61A C87G A120U C129G and U15C A21U C36A G67U G68A C93U G94C G128U G140U A142C cannot be ordered by “polymerase ribozyme fitness (log ratio)” value: ≤ -4.2 for the first, ≤ -4.2 for the second.

U15G U31A G80A G86U C105U C114U and U15A U55A C87A C132U A147C G152A cannot be ordered by “polymerase ribozyme fitness (log ratio)” value: ≤ -4.2 for the first, ≤ -4.2 for the second.

Going from A16C C35G G83C C96U U101C U127C to U15C C38A U61A C87U A122G, the “polymerase ribozyme fitness (log ratio)” value rises from ≤ -4.2 to -2.73.

Going from A16C U45G C114U to U15G A22C A66G G86A G88C U101A C131U A150U U151A, the “polymerase ribozyme fitness (log ratio)” value falls from -3.74 to ≤ -4.2.

U15C A41C A89G C96A C118U U135G and A16C A24U G46C C105G C108G cannot be ordered by “polymerase ribozyme fitness (log ratio)” value: ≤ -4.2 for the first, ≤ -4.2 for the second.

A16C U90C C93G and U15G U44G A73C G74U G80C C93U G141C cannot be ordered by “polymerase ribozyme fitness (log ratio)” value: ≤ -4.2 for the first, ≤ -4.2 for the second.

U15G A28U C85A G86A G92A A106G A115C and U15G U55A C79A C93A C95U C105U A150C cannot be ordered by “polymerase ribozyme fitness (log ratio)” value: ≤ -4.2 for the first, ≤ -4.2 for the second.

U15G A20U G25U C87U C103G U104G A121G G126U U134C C149A and U15A U55A C57G G86C C132G cannot be ordered by “polymerase ribozyme fitness (log ratio)” value: ≤ -4.2 for the first, ≤ -4.2 for the second.

Going from U15G A49C G50A U78A A91C C93A G126U to A16C G25C, the “polymerase ribozyme fitness (log ratio)” value rises from ≤ -4.2 to -2.46.

Compared with U15G A22C A60G A73U C76G C103A A122U U151A, U15G U53A is higher in “polymerase ribozyme fitness (log ratio)” value: ≤ -4.2 for the first, -0.774 for the second.

A16C C32G U56G C63G and A16C A17C A24C U82G C93G A115C U134G cannot be ordered by “polymerase ribozyme fitness (log ratio)” value: ≤ -4.2 for the first, ≤ -4.2 for the second.

U15G A20U C87G G94C C125A G133A U134A U139C and A16G A26U U31G A52C G94A cannot be ordered by “polymerase ribozyme fitness (log ratio)” value: ≤ -4.2 for the first, ≤ -4.2 for the second.

A16C A30U C95G A147G C149A and A16C A49C cannot be ordered by “polymerase ribozyme fitness (log ratio)” value: ≤ -4.2 for the first, ≤ -4.2 for the second.

Compared with U15G A47C, U15G A64G G84A C103U is lower in “polymerase ribozyme fitness (log ratio)” value: -0.922 for the first, ≤ -4.2 for the second.

U15C G46A C63A C87G C96U C103A A106G G117A A121U C149A and A16G A17U A52C A91U C93U U111G C123U G124U G133A cannot be ordered by “polymerase ribozyme fitness (log ratio)” value: ≤ -4.2 for the first, ≤ -4.2 for the second.

A16G A26C C32U A47C U53A A91G C96G and A16G A22U C43G C69A C108G cannot be ordered by “polymerase ribozyme fitness (log ratio)” value: ≤ -4.2 for the first, ≤ -4.2 for the second.

A16G A26U G34U A91U A138U and A16C A22U C35G A89C G100C cannot be ordered by “polymerase ribozyme fitness (log ratio)” value: ≤ -4.2 for the first, ≤ -4.2 for the second.

U15C G50A A64G A73G C96U U102G and A16C A29G U33G A60C C85G G140U C149G cannot be ordered by “polymerase ribozyme fitness (log ratio)” value: ≤ -4.2 for the first, ≤ -4.2 for the second.

First: U15G C79G
Second: U15G A23C U44A C93U C108G U144C
The “polymerase ribozyme fitness (log ratio)” value of the first is higher: -3.38 for the first, ≤ -4.2 for the second.

First: U15A G59A A60G C69A A121C G140A
Second: U15G A17C G25U U45A G59C A60C A106C U134G
The “polymerase ribozyme fitness (log ratio)” value of the first is higher: -3.82 for the first, ≤ -4.2 for the second.

U15G A40C G42A A49G G62C C93A and A16C C54A A91U G92U C114U U134A U144A cannot be ordered by “polymerase ribozyme fitness (log ratio)” value: ≤ -4.2 for the first, ≤ -4.2 for the second.

U15C A24C C43A C54G C57U G86U U111G and A16G A40C G42C A52G C54U C96G U109G cannot be ordered by “polymerase ribozyme fitness (log ratio)” value: ≤ -4.2 for the first, ≤ -4.2 for the second.

U15C C27G A52C G62A C76A G84C G141C U145C and U15G C32A G88A A97G cannot be ordered by “polymerase ribozyme fitness (log ratio)” value: ≤ -4.2 for the first, ≤ -4.2 for the second.
